Measured values from the RNAGym collection of RNA variant scans (doi:10.7554/elife.90254).
The source gives no read counts; variants with many changes may rest on few reads.

B1: LINE1-full (parent)
chain: UACGUAGGUGGUUUUCCCCUGAUAGUGCUAAGGGGGCCUGGAAGUUUGGACUGGGCAGAGCUCAACACAGCGUGGCAAAGUGGCUGUGGCUAGACUGCCUCUCUGGAUUCCUCGUCACUCAGCAGGGCAUCUCUGAGAGAAAUGCC

Variants of: B1
Assay: self-cleavage, relative activity (ratio to wild type); higher = more cleavage; in vitro, sequencing; the parent is a self-cleaving ribozyme

Row | Variant | self-cleavage
1 | A65C A107G U119C U143C | 0
2 | A65C C84U U102C A107G C120A A136U | 0.02
3 | A65C U73A A140G | 0.02
4 | A65C U85A U130C A140G | 0.21
5 | A65C U91C A94G G114U | 0
6 | A65G A67U A69G U73C U91A A124U | 0
7 | A65G A69G A78G A141G | 0.3
8 | A65G A77G A129G A142G | 0.44
9 | A65G A77G A140G | 0.21
10 | A65G A77G G114A | 0.07
11 | A65G A78G U115G U132A | 0
12 | A65G A79U U100C | 0.06
13 | A65G A94C U100C | 0
14 | A65G A107G U112C G127U A138U | 0
15 | A65G A107G U132A | 0
16 | A65G A124C A141G | 0.11
17 | A65G A129U A138U | 0.09
18 | A65G A142G U143C | 0.05
19 | A65G C68U U132C | 0.08
20 | A65G C71U A136C | 0.05
21 | A65G G70U U143A | 0.06
22 | A65G G72A U102C U112A | 0
23 | A65G G75A U81G A140G | 0.04
24 | A65G G86A U102C | 0.03

Row | Variant | self-cleavage
25 | A65G G97A U109A | 0.01
26 | A65G U73A G88U U134C | 0.01
27 | A65G U73A U81C G83A C128U | 0.08
28 | A65G U73A U100C | 0.1
29 | A65G U73C A77G | 0
30 | A65G U73C A121C | 0
31 | A65G U73C U87A | 0
32 | A65G U73G A78G | 0.1
33 | A65G U73G U85C A117U | 0
34 | A65G U81A U85C | 0
35 | A65G U81C U112C U134A | 0
36 | A65G U85A A92G U115A | 0
37 | A65G U85A C103U | 0.02
38 | A65G U85C A129G A141G | 0
39 | A65G U85C U109C | 1.53
40 | A65G U96A A140U | 0.08
41 | A65G U96A U102A | 0.02
42 | A65G U96C G105A | 0.09
43 | A65G U104A U119A A141G | 0
44 | A65G U104C C145U | 0
45 | A65G U109G A136U | 0
46 | A65G U112C U119G A121U | 0
47 | A65G U115C A136G A138G | 0
48 | A65G U119A A141G | 0

Row | Variant | self-cleavage
49 | A65G U130C A138G | 0
50 | A65G U132A A136G A141G | 0
51 | A65G U132C A140G | 0.07
52 | A65U A67G A107G A117U | 0
53 | A65U A69G U87A U115C | 0
54 | A65U A77U A94G A140G | 0
55 | A65U A77U A124G | 0.17
56 | A65U A79G U119C A136G | 0.25
57 | A65U A79U A136G | 0.24
58 | A65U A107G A136U A140U | 0.19
59 | A65U A138G A142G | 0.2
60 | A65U G89A U96A | 0.03
61 | A65U U81G A92G U115C | 0.97
62 | A65U U87C A94G | 0.13
63 | A65U U91C U115C | 0.08
64 | A65U U96C G144A | 0.05
65 | A65U U96G A117U | 0.1
66 | A65U U102A A138G | 0.12
67 | C66A A67G U115C | 0.1
68 | C66A A69U A79G | 0.03
69 | C66A A79G U102C U104C U130C A140G | 0.37
70 | C66G U96C U102A C103U U115C | 0.08
71 | C66G U115C A129G | 0.05
72 | C66U A94G U96A | 0.04

Row | Variant | self-cleavage
73 | C66U C90U U104C | 0.02
74 | C66U U87C A138G | 0.01
75 | A67C G74U U134C | 0.03
76 | A67C G93C A140G | 0
77 | A67G A69G C76U G126U G137A | 0.24
78 | A67G A77G A107G | 0
79 | A67G A77U A136G | 0.18
80 | A67G A78G C90A | 0.05
81 | A67G A78G U85C | 0.16
82 | A67G A92G G105A A142G | 0.26
83 | A67G A92G U132C | 0
84 | A67G A94G U100A | 0
85 | A67G A94G U109A U112A | 0.38
86 | A67G A94U C110A | 0.18
87 | A67G A94U U119C U130C | 0.46
88 | A67G A124G A142G | 0
89 | A67G A136G A140G | 0.84
90 | A67G A138C A141G | 0.45
91 | A67G A138G A140G | 0.48
92 | A67G C68A A94U U96A U132C | 0.02
93 | A67G C68A G127A | 0.01
94 | A67G C71U U87C | 1.95
95 | A67G C76A U100A | 0.22
96 | A67G C76U A79G U134C A140G | 0.46

Row | Variant | self-cleavage
97 | A67G C76U C84U | 0.06
98 | A67G C113U A129G | 0.21
99 | A67G C113U A142G | 0.32
100 | A67G C128U U132A | 0.47
101 | A67G G70A A94G | 0.06
102 | A67G G72A U112A A136G | 0.5
103 | A67G G82A U108C | 0.57
104 | A67G G86A U100C | 0.03
105 | A67G G89A U102C | 0
106 | A67G G93C U109A U115C | 0
107 | A67G G106A U119C | 0.65
108 | A67G G126A U143C | 0.54
109 | A67G U73A U100C G114A U134C | 0.57
110 | A67G U73A U100C G135U | 0.94
111 | A67G U81A U96A | 0.09
112 | A67G U81A U100C G126A A141G | 1.64
113 | A67G U85A A107G A142G | 0.24
114 | A67G U85C U134C | 0.11
115 | A67G U91C A129U A138G | 0
116 | A67G U96C A124U | 0
117 | A67G U96G U132A | 0.3
118 | A67G U100A A140G A141G | 0.23
119 | A67G U104A A142G U143C | 0.84
120 | A67G U109C A117U | 0.33

Row | Variant | self-cleavage
121 | A67G U109C C113U | 0.41
122 | A67G U132C U134C | 0
123 | A67G U134A A138G | 0.3
124 | A67U A69C U87C | 0
125 | A67U A69U A94G A142G | 0.1
126 | A67U A78G U112C | 0
127 | A67U A78U C128A | 0.06
128 | A67U A92G C95A A124G | 0.06
129 | A67U A92U U96A | 0.02
130 | A67U A117G A121U | 0.13
131 | A67U A124G U134C | 0.09
132 | A67U A136U C145G | 0.17
133 | A67U A138U A142U | 0.22
134 | A67U G105A U115C | 1.02
135 | A67U U73A U100C | 0.61
136 | A67U U85C C90U U115A | 0.04
137 | A67U U87C U100C G126U | 0
138 | A67U U87G U119C | 1.27
139 | A67U U96A A107U U143C | 0.03
140 | A67U U104C G125U | 0.09
141 | A67U U108C U132A | 0.2
142 | A67U U109C C113U | 0.04
143 | A67U U112C U132A | 0.15
144 | C68A A78G U132C | 0

Row | Variant | self-cleavage
145 | C68U A79U A117G A140G | 0.11
146 | C68U C98U A140G | 0.04
147 | C68U C128U U132C | 0.34
148 | C68U U81A A142G | 0.18
149 | C68U U115A A138C | 0.05
150 | C68U U130C U143C C146A | 0.3
151 | A69C A79U A140G | 0
152 | A69C U73A A121G A124G A129U | 0.21
153 | A69C U73A G93A U134G | 0.02
154 | A69C U87A U102C | 0.06
155 | A69C U108C A121C A124U | 0
156 | A69G A77G C84U U109C | 0.05
157 | A69G A77U A136G | 0.32
158 | A69G A79G A141U | 0.15
159 | A69G A79G U132C | 0.14
160 | A69G A79U U143C | 0.58
161 | A69G A94G A124G | 0.92
162 | A69G A94U C113U A140G G144A | 0.1
163 | A69G A129G A138C | 0.51
164 | A69G C71A U112C | 0.08
165 | A69G C71U A136G | 0.18
166 | A69G C71U U104C | 0.21
167 | A69G G70A A78G G83A U108A U109C A129G | 0.08
